In paper PMC4336329 (PLoS ONE, 2015):
In all, about 310,000 compounds went through this assay and about 14,000 (4.5%) showed an effect of 50% or more. Effects have a minus sign here. Some of the results follow.

target: human ether-à-go-go-related gene (hERG) potassium channel (human, UniProt Q12809); experiment: primary screen, population patch clamp on CHO cells stably expressing hERG
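Further: peak tail current of the secondary pulse compared with the same well before compound.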

Sequence of human ether-à-go-go-related gene (hERG) potassium channel (Q12809 whole entry, looked up): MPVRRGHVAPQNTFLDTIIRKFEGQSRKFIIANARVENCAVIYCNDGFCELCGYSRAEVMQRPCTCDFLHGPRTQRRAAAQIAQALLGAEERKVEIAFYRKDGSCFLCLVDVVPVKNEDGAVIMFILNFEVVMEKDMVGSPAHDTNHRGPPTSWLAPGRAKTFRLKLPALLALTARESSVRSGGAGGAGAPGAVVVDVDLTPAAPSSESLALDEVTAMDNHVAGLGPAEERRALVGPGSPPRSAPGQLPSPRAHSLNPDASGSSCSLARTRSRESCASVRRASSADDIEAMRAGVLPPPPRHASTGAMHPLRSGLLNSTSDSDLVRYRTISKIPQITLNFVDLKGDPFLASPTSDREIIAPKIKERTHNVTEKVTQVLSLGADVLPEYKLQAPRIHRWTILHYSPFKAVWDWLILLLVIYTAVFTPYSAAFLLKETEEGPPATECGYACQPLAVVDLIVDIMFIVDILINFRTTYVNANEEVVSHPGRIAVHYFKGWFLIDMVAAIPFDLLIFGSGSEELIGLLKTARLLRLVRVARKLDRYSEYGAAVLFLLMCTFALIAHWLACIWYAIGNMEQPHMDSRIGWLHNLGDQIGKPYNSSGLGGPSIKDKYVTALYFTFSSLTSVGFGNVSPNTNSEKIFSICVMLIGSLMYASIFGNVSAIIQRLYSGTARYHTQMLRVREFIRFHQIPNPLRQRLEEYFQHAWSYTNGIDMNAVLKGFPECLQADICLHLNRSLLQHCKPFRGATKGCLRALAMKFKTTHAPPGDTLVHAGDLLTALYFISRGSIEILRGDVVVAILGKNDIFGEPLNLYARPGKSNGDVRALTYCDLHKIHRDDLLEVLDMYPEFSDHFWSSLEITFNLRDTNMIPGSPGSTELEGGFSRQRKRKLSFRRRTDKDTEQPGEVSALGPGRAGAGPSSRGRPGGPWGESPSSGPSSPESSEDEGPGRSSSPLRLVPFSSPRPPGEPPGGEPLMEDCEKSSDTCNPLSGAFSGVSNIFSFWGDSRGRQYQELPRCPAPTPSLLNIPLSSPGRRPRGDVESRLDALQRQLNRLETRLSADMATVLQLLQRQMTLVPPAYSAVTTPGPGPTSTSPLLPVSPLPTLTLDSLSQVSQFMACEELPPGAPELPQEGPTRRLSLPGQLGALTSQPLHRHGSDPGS

Structure (SMILES) | hERG current change (%, negative = inhibition) at 10uM
O=C(CS(=O)(=O)c1ccccc1)N1CCCCCC1 | -4.14%
COc1ccc(C(=O)NC(=O)N2CCCCC2)cc1 | 6.27%
Cc1cc2c(cc(C(=O)O)n2C)s1 | 3.57%
NCCNc1ccc2nnnn2n1 | 38.7%
Cc1ccc(-c2cc(C(=O)NC3CCN(Cc4ccccc4)CC3)c3ccccc3n2)cc1 | 7.42%
COc1cccc(C(=O)Oc2cc3c4c(c2)C(C)=CC(C)(C)N4C(=O)C3=O)c1 | -2.41%
O=C(N/C(=C\c1ccc([N+](=O)[O-])cc1)C(=O)N1CCCCC1)c1ccccc1 | -76.9%
COc1ccc(NC(=O)C2CCCN(c3nn4c(=O)cc(C)nc4s3)C2)cc1 (stereo not shown) | -33.1%
COc1ccc(C(=O)N/N=C/c2cc3ccccc3[nH]c2=O)cc1 | 11.8%
CCc1cccc2c(-c3csc(=NC)n3C)c[nH]c12 | -44.2%
NNC(=O)c1nn(-c2ccc(Cl)cc2)cc1O | -30.2%
CC1CC(C)CN(S(=O)(=O)c2ccc(Oc3ccc([N+](=O)[O-])cc3)cc2)C1 (stereo not shown) | -9.72%
COC(=O)C(=C/C=C/c1ccco1)C(=O)OC | 10.7%
COc1ccccc1CNC(=O)C12CC3CC(CC(C3)C1)C2 | 10%
COc1ccc(C2N(c3ccccc3)CCN2c2ccccc2)cc1O | 11.2%
Cc1noc(NS(=O)(=O)c2ccc(NC(=O)CSc3nc4c(cc3C#N)CCCC4)cc2)c1C | 12.5%
COc1ccc(-c2nnc(NC(=O)c3ccc(S(=O)(=O)N4CCc5ccccc5C4)cc3)o2)cc1 | 12.7%
COC(=O)c1ccsc1NC(=O)c1ccc(Cl)s1 | 12.3%
O=C(N/N=C/C=C/c1ccccc1)c1ccncc1 | -14.9%
C/C(CCC(=O)OC[C@H]1O[C@H](C#Cc2ccccc2)C=C[C@@H]1Oc1ccc(C)cc1)=N\OC[C@@H](O)[C@H]1O[C@@H]2OC(C)(C)O[C@@H]2[C@H]1O | -19.2%
COc1ccccc1S(=O)(=O)Nc1ccc(-c2nnc3n2CCCCC3)cc1 | -2.31%
Clc1ccc(-n2cnnn2)cc1 | -3.56%
O=C(CCc1nc2ccccc2c(=O)[nH]1)N1CCCc2ccccc21 | 3.11%

Structure (SMILES) | hERG current change (%, negative = inhibition) at 10uM
Cc1ccc2nc(-c3cccnc3)c(NC3CCCC3)n2c1 | -19.7%
CCOc1cc(S(=O)(=O)N2CCOCC2)ccc1F | 7.2%
O=C(c1ccc(Cl)c(S(=O)(=O)N2CCOCC2)c1)N1CCN(c2ccccc2)CC1 | -20.1%
Cc1nnc(SCc2nnc(-c3ccccc3Br)o2)s1 | 22.1%
CCCCNC(=S)N1CCN(CC)CC1.O=C(O)C(=O)O | 6.9%
Cc1ccc(SCc2nc3ncccn3c2Br)cc1 | -68%
Cc1ccc(NC(=O)c2ccc(S(=O)(=O)N3CCCC3)cc2)cc1 | -2.68%
C/C(=N/OC(=O)c1ccc(C)cc1)C(=O)c1ccc(Br)cc1 | 20.5%
COc1ccccc1OCC(=O)NNC(=S)NC(=O)c1ccco1 | -0.285%
Cc1ncc(CN2CCCC(C(=O)c3cccc(OC(C)C)c3)C2)s1 (stereo not shown) | -18.9%
CC(C)Sc1nnc(-c2ccc(S(=O)(=O)N3CCOCC3)cc2)n1C | 18.7%
CCOC(=O)NC(=O)c1cn(Nc2ccccc2C(F)(F)F)c(=O)[nH]c1=O | 6.35%
C/C(CC(=O)Nc1ccc(N(C)C)cc1)=N\NC(=O)c1ccc(Cl)cc1 | -13.9%
N#C/C(=C/Nc1ccccc1F)S(=O)(=O)c1ccc(Cl)cc1 | 26.8%
COc1ccccc1C(=O)Nc1ccc(Br)cc1C | 43.8%
C=CCN(c1ccccc1)S(=O)(=O)c1cccc(C(=O)Nc2cc(C)ccn2)c1 | -17.8%
Cc1ccccc1-c1nc(CN2CCN(C(=O)c3ccco3)CC2)c(C)o1 | -5.18%
COc1ccc(OCc2cc(C(=O)NCCN3CCCc4ccccc43)no2)c(Cl)c1 | -1.86%
CCOC(=O)CN1C(=O)C(=O)N(Cc2ccccc2)C1=O | 9.88%
CC(=O)Nc1ccc(S(=O)(=O)CCC#N)cc1 | 0.121%
O=C(c1ccccc1Cc1ccccc1)N1CCN(S(=O)(=O)c2ccccc2Br)CC1 | 0.908%
COCCCn1c(=O)c2ccccc2n(Cc2ccc(C)cc2)c1=O | -4.82%
COCC(=O)Nc1ccc(OCc2ccccc2)cc1 | -8.22%

Structure (SMILES) | hERG current change (%, negative = inhibition) at 10uM
COC(=O)NCCc1cc(OC)c(OC)cc1S(=O)(=O)N1CC(=O)Nc2ccccc21 | 12.6%
COc1ccc(CCNC(=O)c2cc(-c3ccccc3)c(N3CCOCC3)s2)cc1OC | -13.3%
CCOc1ccc2nc(Cl)c(CN(C(C)=O)C3CCCCC3)cc2c1 | -0.442%
COc1ccccc1NC(=O)COC(=O)c1ccc2c(c1)nc(C)n2-c1ccccc1 | -5.86%
Cc1ccc(-c2n[nH]c(=O)c3ccccc23)cc1N | 5.75%
CCC(C)[C@H](NC(=O)NCCCN1CCOCC1)C(=O)OC (stereo partly shown) | 12%
CC1(C)CC(=O)C(C(=O)c2ccccc2)C(=O)C1 | -4.2%
O=C(/C=C/c1ccccc1)N1c2ccccc2Sc2ccc(C(F)(F)F)cc21 | 10.5%
Cc1cc(OC(C)C(=O)Nc2ccccc2C(=O)N2CCCC2)ccc1Cl (stereo not shown) | -16.7%
Cc1noc(C)c1CSc1ccccc1C(=O)N(C)CC(=O)Nc1cccc(F)c1 | -7.17%
Cn1cccc1Cc1nnc(SCC(=O)Nc2ccc(F)cc2)n1-c1ccc(F)cc1 | -21.2%
Cn1nnc(NC(=S)NC(=O)c2cccs2)n1 | -0.112%
COc1ccccc1CNC(=O)CN1CCC(n2cnc3cc(F)ccc32)CC1 | -66%
COc1ccc(Cc2nnc(NC(=O)Nc3ccccc3F)s2)cc1 | 10.2%
CC(SC1=NCCS1)C(=O)Nc1nnc(-c2ccc(Cl)cc2)s1 (stereo not shown) | 6.53%
COc1ccc(C(CC(=O)N2CCOCC2)c2c(OC)cc(OC)c3c(-c4ccccc4)cc(=O)oc23)cc1 (stereo not shown) | 12%
CC(NC(=O)CN(C)CC(=O)Nc1cccc(F)c1)c1ccccc1 (stereo not shown) | 1.29%
CCOc1ccc(C(=O)Nn2cnnc2)cc1 | 2.29%
CCCCC(=O)NC(=S)Nc1ccc(NC(=O)C(C)C)c(OC)c1 | 21.2%
COc1ccccc1Oc1nc(C)c(C(C)=O)cc1C#N | 14.8%
CCN(CC(=O)Nc1c(F)cccc1F)C(=O)CCN1C(=O)C2CC=CCC2C1=O (stereo not shown) | 9.67%
O=[N+]([O-])c1ccc(N2CCC(O)CC2)nc1 | 2.54%
CCc1ccc(NC(=S)N(Cc2ccccc2)Cc2ccccn2)cc1 | -14.3%

Structure (SMILES) | hERG current change (%, negative = inhibition) at 10uM
Cl.O=C(c1ccc(COc2ccccc2Cl)o1)N1CCN(Cc2ccc3c(c2)OCO3)CC1 | -21.3%
Cc1ccc(-n2ccnc2SCC(=O)O)c(C)c1 | 17.3%
Fc1ccc(Cn2nnnc2CN2CCN(C3CCCC3)CC2)cc1 | -49.1%
Cc1ccc(-n2c(SCCN)nnc2-c2cccc(C)c2)cc1.O=C(O)C(=O)O | -38%
O=C(CC(O)(c1ccccc1)C(F)(F)F)c1cccs1 (stereo not shown) | -14.4%
COCCCNc1nc(N)c([N+](=O)[O-])c(N2CCCCCC2)n1 | 14%
Cc1nn(C(C)C)c(C)c1CN1CCCC(CCC(=O)NCc2ccccc2F)C1 (stereo not shown) | 0.286%
CCCC(=O)Nc1ccc2c(c1)nc1n2CCSC1 | -6.26%
Cl.Oc1ccccc1Nc1nc(NCc2ccccc2)c2ccccc2n1 | -1.42%
CN(Cc1ccccc1)c1nnc(N)s1 | 8.4%
CC(C)C(=O)Nc1ccc2c(c1)Cc1cc(NC(=O)C(C)C)ccc1-2 | 25.5%
COc1ccc(C2C(C(C)=O)=C(C)N=c3s/c(=C\c4ccco4)c(=O)n32)c(OC)c1 (stereo not shown) | -27.3%
CC(=O)N1CCc2cc(S(=O)(=O)CCC(=O)N3CCN(c4ccccc4)CC3)ccc21 | 7.15%
CCCNS(=O)(=O)/C=C/c1ccccc1 | 2.98%
Fc1ccc(NC(=S)Nc2ccccc2N2CCOCC2)cc1Cl | -10.7%
COc1ccc2c(c1)sc1nc(-c3ccccc3)cn12 | -6.02%
COc1ccc(/C=C/c2nnc(NC(=O)COc3ccccc3)s2)cc1 | 20.5%
O=c1cnnc(Nc2ccc(F)cc2)[nH]1 | 23.3%
COc1cc(CC(=O)Nc2nc(C)cs2)cc(OC)c1OC | 5.84%
COc1ccc(NC(=O)C2C3C=CC4(CN(Cc5cccnc5)C(=O)C24)O3)c(OC)c1 (stereo not shown) | 13.9%
O=C(c1cccnc1)N1N=C(C2CC2)CC1(O)C(F)(F)F (stereo not shown) | 17.2%
COc1ccc(CN2CC(C(=O)NCCCN3CCN(Cc4ccccc4)CC3)CC2=O)cc1 (stereo not shown) | -7.06%
